Assay results from PubChem BioAssay AID686971 (National Center for Advancing Translational Sciences (NCATS), 2013).
Values joined by “and” are separate entries in the source; they are usually repeats but may differ in a detail not shown here. Identical values can stand only once. The campaign covered roughly 360,000 compounds. About 7,500 (2.1%) were called active. This list was built around the results that the source calls inconclusive (neither active nor inactive); the mix of calls is not that of the screen. The call rests on the fitted dose curve; in most records, active means well fitted cell-killing curve with a large enough effect; inconclusive means small, poorly fitted or top-dose-only effect, or effect the other way, or another doubt; inactive means no such curve, though single readings can be large or run the other way. Where the call is inconclusive, the potency comes from a doubtful curve fit.

Assay: qHTS for induction of synthetic lethality in tumor cells producing 2HG: qHTS for the HT-1080-IDH1KD cell line
Details: HT-1080 IDH1 knockdown viability, ATP luminescence, 48 h; series mostly up to 46.1 µM
Method in brief: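 Knockdown cells (IDH1KD HT-1080) received compounds 2 h after plating at 750 cells/well and were kept 48 h at 37 °C in 5% FBS RPMI. A CellTiter-Glo luminescence read gave % activity for curve fitting.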
Potency means the concentration at half of the fitted maximal effect; tags describe the fitted curve by direction and shape.

| Structure (SMILES) | Potency |
| --- | --- |
| CC(Oc1cccc(Cl)c1)C(=O)Nc1cc(S(=O)(=O)N2CCOCC2)ccc1N1CCCCC1 (stereo not given) | inactive |
| OC(c1ccc(F)c(F)c1)c1nc(-c2csc3ccccc23)cs1 (stereo not given) | inconclusive: 29.1 µM [cytotoxic, single point] |
| Cc1ccc(N2C(=O)SC(Cc3ccccc3)C2=O)cc1 (stereo not given) | inactive |
| Cn1c(N2CCOCC2)c(/C=N/OC(=O)c2ccc(F)cc2)c2ccccc21 | active: 3.16 µM |
| COC(=O)c1c(NC(=O)c2ccc([N+](=O)[O-])o2)sc2c1CCN(C(C)C)C2 | active: 4.61 µM |
| CC(=O)NC1=C(NC2CCS(=O)(=O)C2)C(=O)c2ccccc2C1=O (stereo not given) | inactive |
| O=C(COc1ccc([N+](=O)[O-])cc1)NC(=O)NC1CCS(=O)(=O)C1 (stereo not given) | inactive |
| Cc1ccccc1C(=O)c1ccc2c(c1)n(C)c(=O)n2C | inconclusive: 20 µM [cytotoxic, single point] |
| COc1cc(C=O)ccc1OCCOCCOc1ccc(Cl)cc1Cl | inactive |
| CN(C)CCN(C)Cc1ccccc1Sc1cccc2ccccc12 | inconclusive: 29.1 µM [cytotoxic, single point] |
| COc1ccc(-c2c(-c3cc(OC)cc(OC)c3)n(C)c3ccc(-c4ccn[nH]4)cc23)cc1 | inconclusive: 23.1 µM [cytotoxic, single point] |
| COc1ccc(/C=C/C(=O)c2c(C)cc(C)[nH]c2=O)c2ccccc12 | active: 11.6 µM |
| OCC1OC(n2cnc3ncccc32)C(O)C1O (stereo not given) | inconclusive: 23.1 µM [cytotoxic, single point] |
| COc1ccc(NC(=O)CN2CCN(CC(=O)Nc3ccccc3Cl)CC2)cc1 | inactive |
| Cn1c(N)c(C(=O)COC(=O)CCCc2nc3ccccc3s2)c(=O)n(C)c1=O | inactive |
| CCc1cc(C(=O)N2CCN(c3ccccc3OC)CC2)sc1C | inconclusive: 23.1 µM [cytotoxic, partial curve, poor fit] |
| O=C(c1cc[n+]([O-])cc1)N1CCc2c([nH]c3ccccc23)C1c1ccccc1Cl (stereo not given) | inconclusive: 11.6 µM [cytotoxic, partial curve] |
| NC(=O)c1cc(N)ccc1N1CCCCC1 | inconclusive: 29.1 µM [rising, single point] |
| CCCCCCSc1cc(-c2nc3ccc(C)cn3c2NCc2ccccc2)ccc1OC | inconclusive: 32.6 µM [cytotoxic, single point] and inconclusive: 23.1 µM [cytotoxic, single point] |
| O=C(CCC(=O)Nc1cccc(Cl)c1)N/N=C/c1cc([N+](=O)[O-])ccc1O | inactive |
| Cc1ccc(NC(=O)C(C)Sc2nnc3ccccn23)cc1 (stereo not given) | inactive |
| CCCCC(=O)N(C)c1c(CC)nc2c(OCc3ccc(Cl)cc3Cl)cccn12 | inconclusive: 29.1 µM [cytotoxic, single point] |
| O=C1C(=Cc2ccncc2)CCCc2ccccc21 | inconclusive: 20.6 µM [cytotoxic, partial curve] |

| Structure (SMILES) | Potency |
| --- | --- |
| O=C(N/N=C/c1ccc2ncccc2c1)c1cc(-c2cccs2)nc2ccccc12 | inactive |
| Cc1ccc2nc(SCC(=O)Nc3cccc([N+](=O)[O-])c3)[nH]c2c1 | inconclusive: 35.5 µM [cytotoxic, single point] |
| CCc1ccc(OCC(=O)NCC(c2ccc(Cl)cc2)N2CCCCC2)cc1 (stereo not given) | inconclusive: 29.1 µM [cytotoxic, single point] |
| COc1ccc(-c2onc(C)c2-c2ccccc2)c(O)c1 | active: 16.4 µM |
| Nc1cc2nsnc2cc1Br | inconclusive: 8.2 µM [cytotoxic, partial curve] |
| Cc1ccc(C(=O)CC(=O)c2ccc(C)cc2O)cc1 | inconclusive: 13 µM [cytotoxic, single point] |
| NC(c1ccccc1)c1csc(NC(=O)NCC2CCCCC2)n1 (stereo not given) | inconclusive: 29.1 µM [cytotoxic, single point] |
| O=C1[C@H](Cc2ccccc2)NCCCC[C@@H](c2ccc(Cl)cc2)N1Cc1ccccc1 | inconclusive: 18.4 µM [cytotoxic, single point] |
| N#C/C(=C\c1cccc([N+](=O)[O-])c1)C(=O)Nc1cccnc1 | inactive |
| CCCCC(=O)NC(c1ccc([N+](=O)[O-])cc1)c1c(O)ccc2ccccc12 (stereo not given) | inconclusive: 20.6 µM [cytotoxic, single point] |
| COc1cc(NC(=O)c2ccc(C)cc2)c(OC)cc1NC(=O)CN1CCCCC1 | inconclusive: 16.4 µM [cytotoxic, partial curve] |
| CC(=O)c1ccc(NC(=O)CN2C(=O)/C(=C/C=C/c3ccccc3)SC2=S)cc1 | inactive |
| CCOC(=O)c1c(CSc2ccc(C)cc2)n(C)c2cc(Br)c(O)c(CN(C)C)c12 | inconclusive: 29.1 µM [cytotoxic, single point] |
| CC1=NN(C(=O)c2ccccc2)C(O)(c2ccc(Br)cc2)C1 (stereo not given) | inconclusive: 7.31 µM [cytotoxic, partial curve] |
| Cc1cc(Cl)cc(C)c1OCCCCn1ccnc1 | inconclusive: 35.5 µM [cytotoxic, single point] |
| CC(C)C[C@@H](CO)N(Cc1ccccc1)S(=O)(=O)N(Cc1ccccc1)[C@@H](CO)CC(C)C | inconclusive: 25.9 µM [cytotoxic, single point] |
| C=C1CCC2C(C)(C)[C@H](O)CC[C@@]2(C)[C@@H]1COc1cc(=O)oc2ccccc12 (stereo not given in full) | inconclusive: 32.6 µM [cytotoxic, single point] |
| COc1ccccc1N1CCN(CC(=O)Nc2cc(C)nn2-c2nc(C)cc(C)n2)CC1 | inconclusive: 3.66 µM [cytotoxic, full curve] |
| NCc1csc(Nc2ccc(C(=O)c3ccccc3)cc2)n1 | inconclusive: 1.84 µM [cytotoxic, partial curve, poor fit] |
| Cc1ccc(Cl)cc1NC(=S)N1CCCCCC1 | inactive |
| COc1ccc(OC)c(NC(=O)C2(C)CCN2C(=O)Cc2ccc(Cl)cc2Cl)c1 (stereo not given) | inactive |
| CC1(C)CC(=O)c2cnn(-c3nc4ccccc4[nH]3)c2C1 | inconclusive: 35.5 µM [cytotoxic, single point] |
